{"source": "the supplement of paper PMC8728848", "binders": {"B1": {"name": "BC2L-D C-terminal domain (Burkholderia cenocepacia), Q39MQ9_BURS3 (protein)", "chain": "LVIVDAVTLLSAYPEASRDPAAPTVIDGRHLYVVSPGDAAQLGHNDSRLFTGLSPGDQLHLRETALALRAEVSVLFIRFALKDAGIVAPIELEVRDAATAVPDADDLLHPSCRPLKDHYWRSDVLAAGATTCTADFAVCDRDGTVSGYFRWETSIEIAGSQPDTKQPGFKPSSDRNGNFSLPPNTAFKAIFYANAADRQDLKLFIDDAPEPAATFVGNSEDGVRLFTLNSKGGKIRIEASANGRQSATDARLAPLSAGDTVWLGWLGAEDGADADYNDGIVILQWPIT"}}, "assay_in_all_cases": "glycan array binding signal (z-score within array); higher = stronger binding", "conditions_in_all_cases": "glycan notation: IUPAC condensed, linker removed", "key": {"[1]": {"biological_target": "Gal(b1-3)GlcNAc(b1-2)Man(a1-3)[Gal(b1-3)GlcNAc(b1-2)Man(a1-6)]Man(b1-4)GlcNAc(b1-4)[Fuc(a1-6)]GlcNAc", "summary_of_the_method": "(§1)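 The binding signal is a Z-score computed within each array and averaged over linkers. Arrays of the same protein sequence at different concentrations or buffers were also averaged together. Data originate from 3228 arrays in the Consortium for Functional Glycomics database, kept only where the protein sequence was available.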"}, "[2]": {"biological_target": "Gal(b1-3)GlcNAc(b1-2)[Gal(b1-3)GlcNAc(b1-6)]Man(a1-6)[Gal(b1-3)GlcNAc(b1-2)Man(a1-3)]Man(b1-4)GlcNAc(b1-4)GlcNAc", "summary_of_the_method": "as §1"}, "[3]": {"biological_target": "Gal(b1-3)GlcNAc(b1-3)Gal(b1-3)GlcNAc", "summary_of_the_method": "as §1"}, "[4]": {"biological_target": "Gal(b1-3)GlcNAc(b1-3)Gal(b1-4)Glc", "summary_of_the_method": "as §1"}, "[5]": {"biological_target": "Gal(b1-3)GlcNAc(b1-3)Gal(b1-4)GlcNAc", "summary_of_the_method": "as §1"}, "[6]": {"biological_target": "Gal(b1-3)GlcNAc(b1-3)Gal(b1-4)GlcNAc(b1-6)[Gal(b1-3)GlcNAc(b1-3)]Gal(b1-4)Glc", "summary_of_the_method": "as §1"}, "[7]": {"biological_target": "Gal(b1-3)GlcNAc(b1-3)Gal(b1-4)[Fuc(a1-3)]GlcNAc(b1-6)[Gal(b1-3)GlcNAc(b1-3)]Gal(b1-4)Glc", "summary_of_the_method": "as §1"}, "[8]": {"biological_target": "Gal(b1-3)GlcNAc(b1-3)GalNAc", "summary_of_the_method": "as §1"}, "[9]": {"biological_target": "Gal(b1-3)GlcNAc(b1-6)Gal(b1-4)GlcNAc", "summary_of_the_method": "as §1"}, "[10]": {"biological_target": "Gal(b1-3)[Fuc(a1-4)]GlcNAc", "summary_of_the_method": "as §1"}, "[11]": {"biological_target": "Gal(b1-3)[Fuc(a1-4)]GlcNAc(b1-2)Man(a1-3)[Gal(b1-3)[Fuc(a1-4)]GlcNAc(b1-2)Man(a1-6)]Man(b1-4)GlcNAc(b1-4)GlcNAc", "summary_of_the_method": "as §1"}, "[12]": {"biological_target": "Gal(b1-3)[Fuc(a1-4)]GlcNAc(b1-2)Man(a1-3)[Gal(b1-3)[Fuc(a1-4)]GlcNAc(b1-2)Man(a1-6)]Man(b1-4)GlcNAc(b1-4)[Fuc(a1-6)]GlcNAc", "summary_of_the_method": "as §1"}, "[13]": {"biological_target": "Gal(b1-3)[Fuc(a1-4)]GlcNAc(b1-3)Gal(b1-3)[Fuc(a1-4)]GlcNAc", "summary_of_the_method": "as §1"}, "[14]": {"biological_target": "Gal(b1-3)[Fuc(a1-4)]GlcNAc(b1-3)Gal(b1-4)GlcNAc", "summary_of_the_method": "as §1"}, "[15]": {"biological_target": "Gal(b1-3)[Fuc(a1-4)]GlcNAc(b1-3)Gal(b1-4)[Fuc(a1-3)]GlcNAc", "summary_of_the_method": "as §1"}, "[16]": {"biological_target": "Gal(b1-3)[GlcNAc(b1-6)]GalNAc", "summary_of_the_method": "as §1"}, "[17]": {"biological_target": "Gal(b1-3)[Neu5Ac(a2-6)]GalNAc", "summary_of_the_method": "as §1"}, "[18]": {"biological_target": "Gal(b1-3)[Neu5Ac(a2-6)]GlcNAc(b1-6)Gal(b1-4)Glc", "summary_of_the_method": "as §1"}, "[19]": {"biological_target": "Gal(b1-3)[Neu5Ac(b2-6)]GalNAc", "summary_of_the_method": "as §1"}, "Gal(b1-4)Gal": {"biological_target": "Gal(b1-4)Gal", "summary_of_the_method": "as §1"}, "[20]": {"biological_target": "Gal(b1-4)GalNAc(a1-3)[Fuc(a1-2)]Gal(b1-4)GlcNAc", "summary_of_the_method": "as §1"}, "[21]": {"biological_target": "Gal(b1-4)GalNAc(b1-3)[Fuc(a1-2)]Gal(b1-4)GlcNAc", "summary_of_the_method": "as §1"}, "Gal(b1-4)Glc": {"biological_target": "Gal(b1-4)Glc", "summary_of_the_method": "as §1"}, "Gal(b1-4)Glc6S": {"biological_target": "Gal(b1-4)Glc6S", "summary_of_the_method": "as §1"}, "Gal(b1-4)GlcNAc": {"biological_target": "Gal(b1-4)GlcNAc", "summary_of_the_method": "as §1"}, "[22]": {"biological_target": "Gal(b1-4)GlcNAc(a1-6)Gal(b1-4)GlcNAc", "summary_of_the_method": "as §1"}, "Gal(b1-4)GlcNAc(b1-2)Man": {"biological_target": "Gal(b1-4)GlcNAc(b1-2)Man", "summary_of_the_method": "as §1"}, "[23]": {"biological_target": "Gal(b1-4)GlcNAc(b1-2)Man(a1-3)Man(b1-4)GlcNAc(b1-4)GlcNAc", "summary_of_the_method": "as §1"}, "[24]": {"biological_target": "Gal(b1-4)GlcNAc(b1-2)Man(a1-3)[Gal(b1-4)GlcNAc(b1-2)Man(a1-6)]Man(b1-4)GlcNAc(b1-4)GlcNAc", "summary_of_the_method": "as §1"}, "[25]": {"biological_target": "Gal(b1-4)GlcNAc(b1-2)Man(a1-3)[Gal(b1-4)GlcNAc(b1-2)Man(a1-6)]Man(b1-4)GlcNAc(b1-4)[Fuc(a1-6)]GlcNAc", "summary_of_the_method": "as §1"}, "[26]": {"biological_target": "Gal(b1-4)GlcNAc(b1-2)Man(a1-3)[Gal(b1-4)GlcNAc(b1-2)][GlcNAc(b1-4)]Man(b1-4)GlcNAc(b1-4)GlcNAc", "summary_of_the_method": "as §1"}, "[27]": {"biological_target": "Gal(b1-4)GlcNAc(b1-2)Man(a1-3)[GlcNAc(b1-2)Man(a1-6)]Man(b1-4)GlcNAc(b1-4)GlcNAc", "summary_of_the_method": "as §1"}, "[28]": {"biological_target": "Gal(b1-4)GlcNAc(b1-2)Man(a1-3)[Man(a1-6)]Man(b1-4)GlcNAc(b1-4)GlcNAc", "summary_of_the_method": "as §1"}, "[29]": {"biological_target": "Gal(b1-4)GlcNAc(b1-2)Man(a1-6)Man(b1-4)GlcNAc(b1-4)GlcNAc", "summary_of_the_method": "as §1"}, "[30]": {"biological_target": "Gal(b1-4)GlcNAc(b1-2)Man(a1-6)[GlcNAc(b1-2)Man(a1-3)]Man(b1-4)GlcNAc(b1-4)GlcNAc", "summary_of_the_method": "as §1"}, "[31]": {"biological_target": "Gal(b1-4)GlcNAc(b1-2)Man(a1-6)[Man(a1-3)]Man(b1-4)GlcNAc(b1-4)GlcNAc", "summary_of_the_method": "as §1"}, "[32]": {"biological_target": "Gal(b1-4)GlcNAc(b1-2)[Gal(b1-4)GlcNAc(b1-4)]Man(a1-3)[Gal(b1-4)GlcNAc(b1-2)Man(a1-6)]Man(b1-4)GlcNAc(b1-4)GlcNAc", "summary_of_the_method": "as §1"}, "[33]": {"biological_target": "Gal(b1-4)GlcNAc(b1-2)[Gal(b1-4)GlcNAc(b1-4)]Man(a1-3)[Gal(b1-4)GlcNAc(b1-2)[Gal(b1-4)GlcNAc(b1-6)]Man(a1-6)]Man(b1-4)GlcNAc(b1-4)GlcNAc", "summary_of_the_method": "as §1"}}, "note": "The other results are listed elsewhere or left out."}
{"binder": "B1", "values": [{"measurement": "glycan array binding signal (z-score)", "setting": "[1]", "value": -0.128}, {"measurement": "glycan array binding signal (z-score)", "setting": "[2]", "value": 0.178}, {"measurement": "glycan array binding signal (z-score)", "setting": "[3]", "value": -0.242}, {"measurement": "glycan array binding signal (z-score)", "setting": "[4]", "value": -0.248}, {"measurement": "glycan array binding signal (z-score)", "setting": "[5]", "value": -0.241}, {"measurement": "glycan array binding signal (z-score)", "setting": "[6]", "value": -0.163}, {"measurement": "glycan array binding signal (z-score)", "setting": "[7]", "value": -0.162}, {"measurement": "glycan array binding signal (z-score)", "setting": "[8]", "value": -0.161}, {"measurement": "glycan array binding signal (z-score)", "setting": "[9]", "value": -0.156}, {"measurement": "glycan array binding signal (z-score)", "setting": "[10]", "value": 0.06}, {"measurement": "glycan array binding signal (z-score)", "setting": "[11]", "value": -0.037}, {"measurement": "glycan array binding signal (z-score)", "setting": "[12]", "value": 0.923}, {"measurement": "glycan array binding signal (z-score)", "setting": "[13]", "value": 0.54}, {"measurement": "glycan array binding signal (z-score)", "setting": "[14]", "value": -0.137}, {"measurement": "glycan array binding signal (z-score)", "setting": "[15]", "value": 0.345}, {"measurement": "glycan array binding signal (z-score)", "setting": "[16]", "value": -0.242}, {"measurement": "glycan array binding signal (z-score)", "setting": "[17]", "value": -0.243}, {"measurement": "glycan array binding signal (z-score)", "setting": "[18]", "value": -0.243}, {"measurement": "glycan array binding signal (z-score)", "setting": "[19]", "value": -0.242}, {"measurement": "glycan array binding signal (z-score)", "setting": "Gal(b1-4)Gal", "value": -0.162}, {"measurement": "glycan array binding signal (z-score)", "setting": "[20]", "value": -0.242}, {"measurement": "glycan array binding signal (z-score)", "setting": "[21]", "value": -0.239}, {"measurement": "glycan array binding signal (z-score)", "setting": "Gal(b1-4)Glc", "value": -0.241}, {"measurement": "glycan array binding signal (z-score)", "setting": "Gal(b1-4)Glc6S", "value": -0.242}, {"measurement": "glycan array binding signal (z-score)", "setting": "Gal(b1-4)GlcNAc", "value": -0.218}, {"measurement": "glycan array binding signal (z-score)", "setting": "[22]", "value": -0.248}, {"measurement": "glycan array binding signal (z-score)", "setting": "Gal(b1-4)GlcNAc(b1-2)Man", "value": -0.157}, {"measurement": "glycan array binding signal (z-score)", "setting": "[23]", "value": -0.243}, {"measurement": "glycan array binding signal (z-score)", "setting": "[24]", "value": -0.232}, {"measurement": "glycan array binding signal (z-score)", "setting": "[25]", "value": -0.236}, {"measurement": "glycan array binding signal (z-score)", "setting": "[26]", "value": -0.166}, {"measurement": "glycan array binding signal (z-score)", "setting": "[27]", "value": -0.168}, {"measurement": "glycan array binding signal (z-score)", "setting": "[28]", "value": 0.676}, {"measurement": "glycan array binding signal (z-score)", "setting": "[29]", "value": -0.224}, {"measurement": "glycan array binding signal (z-score)", "setting": "[30]", "value": -0.17}, {"measurement": "glycan array binding signal (z-score)", "setting": "[31]", "value": 1.08}, {"measurement": "glycan array binding signal (z-score)", "setting": "[32]", "value": -0.218}, {"measurement": "glycan array binding signal (z-score)", "setting": "[33]", "value": -0.159}]}
